Results from PubChem BioAssay AID485344 (National Center for Advancing Translational Sciences (NCATS), 2010).
Hit rate of the full screen: of about 340,000 compounds, about 6,900 (2%) were called active. Cut-off read from the data, not from the text of the source: active = inhibition above about 30%; inactive = below that, where a call was filed. The list shows a part of the results, in another mix than the full data. The source gives no active or inactive call for entries shown without one.

biological target: D(2) dopamine receptor (Homo sapiens) (UniProt P14416); assay: HTS Assay for Allosteric Antagonists of the Human D2 Dopamine Receptor: Primary Screen for Antagonists; settings: HEK293 TREx D2 cells, calcium flux, dopamine EC80; at 10 µM; stronger effect = higher value; note: 0% is about no effect
How it was run: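 HEK293 T-REx D2 cells, tet-induced, calcium dye no-wash. Cpd pintool add, 180 s kinetic, then EC80 DA, 180 s kinetic. Ca flux read.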

UniProt P14416, sequence (P14416 whole entry, looked up): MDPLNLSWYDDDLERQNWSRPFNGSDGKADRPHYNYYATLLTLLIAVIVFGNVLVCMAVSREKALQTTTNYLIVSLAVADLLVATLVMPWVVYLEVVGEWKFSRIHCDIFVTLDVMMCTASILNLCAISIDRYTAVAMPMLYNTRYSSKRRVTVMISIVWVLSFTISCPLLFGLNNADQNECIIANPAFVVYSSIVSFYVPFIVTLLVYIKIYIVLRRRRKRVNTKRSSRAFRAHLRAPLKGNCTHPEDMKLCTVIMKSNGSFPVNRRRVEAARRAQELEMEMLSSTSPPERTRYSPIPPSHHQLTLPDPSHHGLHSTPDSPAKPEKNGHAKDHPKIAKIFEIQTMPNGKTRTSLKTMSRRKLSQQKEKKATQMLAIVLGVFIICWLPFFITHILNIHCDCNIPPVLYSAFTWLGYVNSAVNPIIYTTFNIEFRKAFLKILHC

Structure (SMILES) | inhibition
Cc1c(C(=O)N(Cc2ccc(Cl)cc2)CC2CCCO2)oc2ccc(F)cc12 (configuration not stated) | -1.87%
CCOc1ccc(-c2nc(SCC(=O)NCCCOC)c(-c3ccccc3)[nH]2)cc1 | -4.6%
COc1ccc(Cl)cc1NC(=O)CSc1nnc(COc2ccccc2)n1C | active: 42.8%
COc1cc(C(=O)OCc2cc(=O)n3nc(C(C)C)sc3n2)cc(OC)c1OC | 3.27%
COc1cc(NC(=O)c2cccc(F)c2)ccc1NC(=O)c1cc2ccccc2o1 | -7.04%
CCOc1ccccc1NC(=O)CN1CCCN(Cc2cccc(Cl)c2)S1(=O)=O | -3.71%
Cc1nc2ncnn2c(C)c1CCC(=O)N1CCN(c2cccc(Cl)c2)CC1 | 5.41%
CCOC(=O)c1cccc(NS(=O)(=O)c2cc3[nH]c(=O)c(=O)[nH]c3cc2C)c1 | -11.7%
CC1CCC2(CC1)N=C(c1ccccc1)C(=O)N2CC(=O)Nc1ccc(F)c(Cl)c1 (configuration not stated) | -0.929%
O=C(C1COc2ccccc2O1)N1CCN(c2ccccc2)CC1 (configuration not stated) | active: 40.6%
COc1cccc(CNC(=O)COCc2cc(-c3ccc4c(c3)OCO4)on2)c1 | 5.19%
CCc1ccc(NC(=O)c2nnn(Cc3cccc(C(F)(F)F)c3)c2N)cc1 | 10.5%
CCCOc1ccc(NC(=O)CC2C(=O)N(c3ccc(C)cc3)C(=O)N2Cc2cccc(OC)c2)cc1 (configuration not stated) | 6.42%
CCOC(=O)C1CCN(c2c(C(=O)c3ccc(C)cc3)cnc3ccc(F)cc23)CC1 | -0.0758%
O=c1c2cc3c(nc2ncn1Cc1ccc(Cl)cc1)CCCC3 | -6.39%
Cc1cccc(C(=O)NCC(=O)OC(C)C(=O)Nc2ccc(Cl)cn2)c1 (configuration not stated) | active: 37.2%
O=S(=O)(c1ccc2[nH]c3c(c2c1)CCCCC3)N1CCN(c2cccc(Cl)c2)CC1 | -1.89%
Cc1ccccc1CNC(=O)c1sc2ncnc(N(C)C3CCCCC3)c2c1C | -0.952%
CC1=C(C(=O)Nc2cccc(C(F)(F)F)c2)C2(CCCCC2)OC1=O | 11%
Cc1cccc(NC(=O)c2sc(-n3nc(C)c(CCC(C)C)c3C)nc2C)c1C | -3.8%
Cn1cnnc1SCC(=O)Nc1nc(-c2ccccc2)cs1 | active: 55.6%
O=C(Cn1c(-c2cccs2)cc2ccccc21)NCc1ccccc1Br | -7.16%
CSCCCN1CC[C@@H](N2CCN(c3ccccc3F)CC2)[C@H](O)C1 | active: 79.4%
CCc1cccc(C)c1NC(=O)CN1C(=O)C2(SCC(=O)N2c2cc(C)cc(C)c2)c2ccccc21 (configuration not stated) | -2.73%
CN(C)S(=O)(=O)c1ccc2c(c1)N(CC(=O)N1CCN(c3ccccc3F)CC1)CCS2 | -14.5%

Structure (SMILES) | inhibition
COc1cccc(C(=O)Nc2ccccc2-c2nc3ccccc3s2)c1 | 9.53%
CCCN1C(=O)/C(=C/c2c(N3CCNC(=O)C3CC(=O)OC)nc3c(C)cccn3c2=O)SC1=S (configuration not stated) | active: 42.7%
CCc1cccc(C)c1NC(=O)C1CCN(S(=O)(=O)Cc2ccccc2)CC1 | 1.59%
Cc1ccc(Nc2nc(Nc3ccc(C)c(C)c3)nc(N3CCOCC3)n2)cc1C | 8.04%
Cc1ccc(-n2nnnc2CNC(=O)c2ccccc2)cc1C | 0.67%
COc1cc(C(=O)N2CCN(c3ccc(Nc4ccccc4)nn3)CC2)cc(OC)c1OC | -17.4%
CC1CCCCN1S(=O)(=O)c1cc2c3c(c1)CC(=O)N3CCC2 (configuration not stated) | -22%
Cc1ccc(CNC(=O)CCCCn2c(=O)c3ccccc3n(Cc3ccc(C)cc3)c2=O)cc1 | 5.3%
CCOC(=O)c1c(S(=O)(=O)N2CCC(C(=O)NCc3ccccc3OC)CC2)c(C)n(C)c1C | -0.455%
Cc1cc(C)cc(OCC(=O)N(Cc2ccc(Cl)cc2)CC2CCCO2)c1 (configuration not stated) | -14.6%
CCCCSCCCNC(=O)c1cn(C)c2ccc(S(=O)(=O)N3CCCC3)cc2c1=O | 1.25%
COc1ccc(-c2nc3ccc(C)cn3c2Nc2ccc3c(c2)OCO3)cc1 | -11.4%
Cc1ccc(-n2nc(C(=O)Nc3ccc(C)c(F)c3)c(=O)n(C)c2=O)cc1 | 1.23%
O=C(NC1CCCC1)c1ccc2c(=O)n(Cc3ccccc3)c(SCc3ccccc3)nc2c1 | 9.85%
COc1cc(C(=O)Nc2ccc(NC(=O)c3ccc(Br)cc3)cc2)cc(OC)c1OC | 0.879%
COc1ccc(CCn2c3c(c(=O)[nH]c2=O)C(NC(=O)c2ccccc2OC)(C(F)(F)F)C(=O)N3)cc1OC (configuration not stated) | 14.8%
Cc1oc(-c2cccc(Cl)c2)nc1CSc1nc2ncccc2[nH]1 | 8.38%
Cc1ccc(-n2ccnc(NCCc3ccc(S(N)(=O)=O)cc3)c2=O)cc1C | -2.64%
CCC1CCCCN1C(=O)CSc1nc2c([nH]c3ccccc32)c(=O)n1-c1cccc(OC)c1 (configuration not stated) | 3.1%
COc1ccc(CNCC(O)COc2cccc3c2OC(C)(C)C3)cc1 (configuration not stated) | active: 44.3%
O=C(COc1ccccc1Cl)Nc1ccc(Cl)c(-c2nc3ccccc3o2)c1 | 17.7%
O=C(O)c1ccc2nc(-c3cc4cc(F)ccc4oc3=O)[nH]c2c1 | 9.46%
Cc1cccc(N2CCN(C(=O)c3cc4c(=O)n(C)c5ccccc5c4s3)CC2)c1C | 11.2%
COc1ccc(NC(=O)c2ccc(-c3ccccc3C(F)(F)F)o2)cc1 | active: 49.3%
Cc1ccc(CN2CCN(C3CCN(S(=O)(=O)c4ccc(C)cc4)CC3)C(=O)C2=O)cc1 | -6.97%

Structure (SMILES) | inhibition
CCOc1ccc(NC(=O)C(=O)NCCc2csc3nc(-c4ccccc4F)nn23)cc1 | 8.47%
COC(=O)c1ccc(Cl)cc1NC(=O)N(C)CCc1c(C)nn(C)c1C | 9.5%
CCOc1ccc(NC(=O)Cn2cc(C(=O)c3ccc(C)c(C)c3)c(=O)c3cc(OC)c(OC)cc32)cc1 | 8.42%
CCOC(=O)c1ccc(NC(=O)c2csc3c2CCCCC3)cc1 | -5.88%
COc1cc(NC(=O)C(CC(C)C)NS(=O)(=O)c2ccc3c(c2)oc(=O)n3C)c(C(=O)O)cc1OC (configuration not stated) | -8.26%
O=c1cc(-c2ccc(F)cc2)nc(SCc2nc(-c3ccccc3Cl)no2)[nH]1 | 0.972%
Cc1nn(Cc2ccc([N+](=O)[O-])cc2)c(=O)n1-c1cccc(Cl)c1 | active: 32.5%
COc1ccc(OC(C)c2nc3ccccc3[nH]2)cc1 (configuration not stated) | -10.7%
O=C(Nc1ccc2oc(-c3cccnc3)nc2c1)c1ccc(-c2ccccc2)o1 | 10.3%
CC1CCCN(CCCCOc2cccc(Br)c2)C1 (configuration not stated) | active: 75%
CCc1ccc(NC(=O)C(=O)NCC(c2cccnc2)N2CCN(C)CC2)cc1 (configuration not stated) | 7.96%
CC(=O)N1CCC2(CC1)OC(=O)C(C)=C2C(=O)NCc1ccc(Cl)cc1 | -2.2%
Cn1ccc2c(OCC(=O)NCc3ccccc3Cl)cccc2c1=O | 19.5%
CCc1ccc(CNC(=O)c2ccc3nc(C(C)C)oc3c2)cc1 | -16.9%
CN(CCC#N)C(=O)Cn1nc(Cc2ccncc2)c2ccccc2c1=O | active: 35.2%
COc1cccc(CNC(=O)Cc2c(C)c3c(cc(C)c4c(C)coc43)oc2=O)c1 | 13.8%
CCOc1ccc(NC(=O)Nc2ccc3snnc3c2)cc1 | -0.0812%
O=C(Cn1ncc2c3ccccc3n(Cc3ccccc3)c2c1=O)Nc1ccccc1C(F)(F)F | 0.379%
COc1ccc(OC)c(CNC(=O)CCCn2nc(C)c3c(C)n(-c4ccc(C)cc4)nc3c2=O)c1 | 10.1%
CCn1ccc2cc(S(=O)(=O)N3CCCN(C(=O)Nc4cc(Cl)ccc4C)CC3)ccc21 | -15.4%
CC(C)c1ccc(NS(=O)(=O)c2ccc3[nH]cc(C(=O)N4CCCC4)c(=O)c3c2)cc1 | 1.64%
CC1CCN(C(=O)c2cc(-c3cccc(Cl)c3)on2)CC1 | 1.49%
CC(C)c1nnc(NC(=O)CS(=O)(=O)Cc2ccccc2)s1 | active: 54.6%
COc1ccc(-c2noc(-c3ccc(NCCc4ccccc4)c([N+](=O)[O-])c3)n2)cc1OC | 16.1%
Cc1cc(C)cc(-n2c(SCC(=O)NCC3CCCO3)nc3c([nH]c4ccccc43)c2=O)c1 (configuration not stated) | 1.93%

Structure (SMILES) | inhibition
CCOc1ccc(-c2cc(NC(=O)c3ccc(C)cc3)c(C(=O)OC)s2)cc1 | -6.45%
CN(C)CCCNC(=O)N1c2ccccc2C=Cc2ccccc21 | active: 33.4%
CC(C)(C)C(=O)c1cnc(Nc2ccccc2)s1 | active: 32.1%
COc1ccc2c(c1)-c1nc(NC(=O)c3ccc(C)cc3)sc1CC2 | 14%
O=C(NCc1ccc2c(c1)OCO2)c1ccc2c(c1)N(Cc1ccc(F)cc1)C(=O)c1ccccc1S2=O (configuration not stated) | 13.1%
CCN(c1ccc(Cl)cc1)S(=O)(=O)c1nnc(NC(=O)C2CCCCC2)s1 | 23.3%
Cc1ccc2nc(N(Cc3cccnc3)C(=O)c3ccc4c(c3)OCCO4)sc2c1 | -4.91%
CCOCCc1nn2c(=O)cc(COC(=O)c3cccs3)nc2s1 | -1.45%
CCCN1C(=O)c2ccccc2CC1(C)C(=O)NC1CCCCC1 (configuration not stated) | 5.64%
COc1ccccc1NC(=O)C1CCN(S(=O)(=O)c2ccc3c(c2)oc(=O)n3C)CC1 | 0.396%
Cc1ccc(NC(=O)N2CCN(c3nnc(C)c4c(C)n(-c5ccccc5)nc34)CC2)cc1Cl | 10.1%
CCOc1ccccc1CNC(=O)c1cnc2sc(N3CCCC3)nn2c1=O | 13.6%
CCOCCCn1c(SCC(=O)Nc2cccc(OC)c2)nc2ccccc2c1=O | 11.3%
Cc1cccc(CN2C(=O)CC(c3ccc(Cl)cc3)c3c(C)nn(-c4nc(C)cc(C)n4)c32)c1 (configuration not stated) | 13.6%
COc1ccccc1N(CC(=O)Nc1ccccc1F)S(C)(=O)=O | -7.97%
CCCNc1nc(NCc2ccccc2OC)c2cnn(C)c2n1 | 17.5%
CCN(CCCNC(=O)c1cc2c(=O)[nH]c3ccc(C)cc3c2s1)c1ccc(C)cc1 | -11.6%
COc1ccc(C2NC(=O)c3c(sc4c3CCN(C)C4)N2)cc1O (configuration not stated) | 23.9%
Cc1ccc(Cl)cc1N1CCN(S(=O)(=O)c2ccc3[nH]c4c(c3c2)CCCC4)CC1 | 5.67%
Cc1cccc(N2CCN(C(=O)C3CCN(S(=O)(=O)c4cn(C)cn4)CC3)CC2)c1C | 15.6%
COc1ccccc1NC(=O)CN1C(=O)c2cccc3cccc1c23 | -3.63%
CCCCCn1c(=O)[nH]c2cc(C(=O)NCc3ccc(OC)cc3)ccc2c1=O | -3.41%
